Assay results taken from the supplement of paper PMC4604168 (melanoma cell lines).
This is one part of the list. Most values come without repeats; read them as rough.

Columns and labels:
Experiment in all cases: cell count relative to DMSO control; melanoma cells; higher = more viable cells
Settings in all cases: library dose: standard library concentration; 72 h
G361 = test system: G361
IPC-298 = test system: IPC-298
IST-MEL1 = test system: IST-MEL1
LB2518-MEL = test system: LB2518-MEL
LOXIMVI = test system: LOXIMVI
MEL-HO = test system: MEL-HO
MZ2-MEL = test system: MZ2-MEL
MeWo = test system: MeWo
RPMI7951 = test system: RPMI7951
RVH-421 = test system: RVH-421
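Note: cells treated in 1,536-well plates, then fixed and DAPI-stained, with nuclei counted from automated high-throughput microscope images.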

SMILES	cell count (G361)	cell count (IPC-298)	cell count (IST-MEL1)	cell count (LB2518-MEL)	cell count (LOXIMVI)	cell count (MEL-HO)	cell count (MZ2-MEL)	cell count (MeWo)	cell count (RPMI7951)	cell count (RVH-421)
COc1ccc(C2=N[C@@H](c3ccc(Cl)cc3)[C@@H](c3ccc(Cl)cc3)N2C(=O)N2CCNC(=O)C2)c(OC(C)C)c1 [Nutlin-3] + COCC[n+]1c2c(n(Cc3cnccn3)c1C)C(=O)c1ccccc1C2=O [YM155] (first compound 0.5 µM, partner dose 0.002 µM)	70.3%	40.7%	44.7%	13.1%	40.2%	93.2%	23%	44.9%	29.6%	60.1%
Cc1cn(-c2cc(NC(=O)c3ccc(C)c(Nc4nccc(-c5cccnc5)n4)c3)cc(C(F)(F)F)c2)cn1 [nilotinib] + C=CCn1c(=O)c2cnc(Nc3ccc(N4CCN(C)CC4)cc3)nc2n1-c1cccc(C(C)(C)O)n1 [MK1775] (first compound 1 µM, partner dose 0.1 µM)	77.6%	94.4%	99.9%	46.5%	76.2%	90.5%	112%	78.4%	39.7%	82%
COc1ccc(C2=N[C@@H](c3ccc(Cl)cc3)[C@@H](c3ccc(Cl)cc3)N2C(=O)N2CCNC(=O)C2)c(OC(C)C)c1 [Nutlin-3] + COc1ccc(Cl)c(Nc2nc3ccccc3nc2NS(=O)(=O)c2cccc(NC(=O)C(C)(C)N)c2)c1 [XL147] (first compound 0.5 µM, partner dose 4 µM)	62.4%	78.1%	62.6%	66%	58.7%	70.4%	84%	93.1%	98.9%	52.7%
Cn1c(=O)n(-c2ccc(C(C)(C)C#N)cc2)c2c3cc(-c4cnc5ccccc5c4)ccc3ncc21 + C[C@]1(c2nc3c(C(N)=O)cccc3[nH]2)CCCN1 [Veliparib] (first compound 0.02 µM, partner dose 7 µM)	50.4%	65.4%	74.6%	90.5%	70.5%	66.5%	67.9%	61.2%	69.1%	83.6%
Cn1c(=O)n(-c2ccc(C(C)(C)C#N)cc2)c2c3cc(-c4cnc5ccccc5c4)ccc3ncc21 + Cc1cc(N2CCOCC2)cc2[nH]c(-c3c(NC[C@@H](O)c4cccc(Cl)c4)cc[nH]c3=O)nc12 [BMS536924] (first compound 0.02 µM, partner dose 1 µM)	51.3%	74%	72.9%	71.1%	72.6%	68.5%	88.6%	57.1%	72.9%	81.7%
Cc1cn(-c2cc(NC(=O)c3ccc(C)c(Nc4nccc(-c5cccnc5)n4)c3)cc(C(F)(F)F)c2)cn1 [nilotinib] + O=C(Nc1ccccc1)c1cc([N+](=O)[O-])ccc1Cl [GW9662] (first compound 1 µM, partner dose 10 µM)	59.8%	103%	93.7%	94.3%	83.8%	84.5%	66.7%	71%	74.3%	85.6%
CC(C)C[C@H](NC(=O)[C@H](Cc1ccccc1)NC(=O)c1cnccn1)B(O)O [Bortezomib] + C=CCNC1=C2C[C@@H](C)C[C@H](OC)[C@H](O)[C@@H](C)/C=C(\C)[C@H](OC(N)=O)[C@@H](OC)/C=C\C=C(/C)C(=O)NC(=CC1=O)C2=O [Tanespimycin] (first compound 0.005 µM, partner dose 0.01 µM)	1.39%	14.9%	14.3%	6.19%	33.4%	40.4%	6.5%	22.1%	4.65%	7.74%
Cc1cc(Nc2cc(N3CCN(C)CC3)nc(/C=C/c3ccccc3)n2)n[nH]1 + CCN(CC)CCCCNc1ncc2cc(-c3cc(OC)cc(OC)c3)c(NC(=O)NC(C)(C)C)nc2n1 [PD173074] (first compound 0.2 µM, partner dose 0.5 µM)	108%	98.2%	115%	72%	72.9%	113%	117%	85%	114%	109%
Cc1cn(-c2cc(NC(=O)c3ccc(C)c(Nc4nccc(-c5cccnc5)n4)c3)cc(C(F)(F)F)c2)cn1 [nilotinib] + Cn1cnc2c(F)c(Nc3ccc(Br)cc3Cl)c(C(=O)NOCCO)cc21 [selumetinib] (first compound 1 µM, partner dose 0.075 µM)	59.1%	47%	93.9%	32.4%	156%	72.8%	63.4%	66%	82.1%	58.5%
Cc1cn(-c2cc(NC(=O)c3ccc(C)c(Nc4nccc(-c5cccnc5)n4)c3)cc(C(F)(F)F)c2)cn1 [nilotinib] + O=C1NC(=O)/C(=C/c2ccc(-c3ccc(F)cc3O)o2)S1 [AS252424] (first compound 1 µM, partner dose 5 µM)	76.9%	81.9%	102%	103%	87.7%	81.5%	79.1%	83.7%	93.7%	61.1%
CC(C)C[C@H](NC(=O)[C@H](Cc1ccccc1)NC(=O)c1cnccn1)B(O)O [Bortezomib] + CC(C)(C)c1cnc(CSc2cnc(NC(=O)C3CCNCC3)s2)o1 [SNS-032] (first compound 0.005 µM, partner dose 0.05 µM)	0.921%	8.03%	15.9%	2.02%	30.4%	33.2%	5.34%	15%	3.91%	7.06%
Cc1cn(-c2cc(NC(=O)c3ccc(C)c(Nc4nccc(-c5cccnc5)n4)c3)cc(C(F)(F)F)c2)cn1 [nilotinib] + COc1cc(N2CCC(N3CCN(C)CC3)CC2)ccc1Nc1ncc(Cl)c(Nc2ccccc2S(=O)(=O)C(C)C)n1 [NVP-TAE684] (first compound 1 µM, partner dose 0.4 µM)	81.8%	82.5%	85.8%	89.3%	99.8%	82.6%	78.7%	76.4%	84.7%	74.8%
Cc1cn(-c2cc(NC(=O)c3ccc(C)c(Nc4nccc(-c5cccnc5)n4)c3)cc(C(F)(F)F)c2)cn1 [nilotinib] + CC(C)CCN1c2nc(Nc3cc(F)c(O)c(F)c3)ncc2N(C)C(=O)C1C [BID1870] (first compound 1 µM, partner dose 1 µM)	74.3%	87.3%	81.6%	82.4%	92.9%	64.9%	90.4%	72.8%	106%	13.7%
COc1ccc(C2=N[C@@H](c3ccc(Cl)cc3)[C@@H](c3ccc(Cl)cc3)N2C(=O)N2CCNC(=O)C2)c(OC(C)C)c1 [Nutlin-3] + CC(C)CCN1c2nc(Nc3cc(F)c(O)c(F)c3)ncc2N(C)C(=O)C1C [BID1870] (first compound 0.5 µM, partner dose 1 µM)	61%	72.7%	77%	74.2%	59%	60.6%	103%	75.8%	97.9%	55.1%
Cc1cc(Nc2cc(N3CCN(C)CC3)nc(/C=C/c3ccccc3)n2)n[nH]1 + Cc1cc(N2CCOCC2)cc2[nH]c(-c3c(NC[C@@H](O)c4cccc(Cl)c4)cc[nH]c3=O)nc12 [BMS536924] (first compound 0.2 µM, partner dose 1 µM)	64.4%	86.1%	82.5%	62.5%	77.8%	96.4%	117%	65.4%	101%	72.1%
Cc1cn(-c2cc(NC(=O)c3ccc(C)c(Nc4nccc(-c5cccnc5)n4)c3)cc(C(F)(F)F)c2)cn1 [nilotinib] + Nc1nc(F)nc2c1ncn2[C@@H]1O[C@H](CO)[C@@H](O)[C@@H]1O [fludarabine] (first compound 1 µM, partner dose 1 µM)	74.1%	57.8%	56.1%	102%	142%	64.6%	83.6%	82.8%	56.8%	67.6%
Cn1c(=O)n(-c2ccc(C(C)(C)C#N)cc2)c2c3cc(-c4cnc5ccccc5c4)ccc3ncc21 + COc1cc2c(Oc3ccc4[nH]c(C)cc4c3F)ncnc2cc1OCCCN1CCCC1 [cediranib] (first compound 0.02 µM, partner dose 2 µM)	62.2%	92%	69.6%	82.8%	54.8%	73.9%	84%	56.1%	57.1%	82.4%
COc1ccc(C2=N[C@@H](c3ccc(Cl)cc3)[C@@H](c3ccc(Cl)cc3)N2C(=O)N2CCNC(=O)C2)c(OC(C)C)c1 [Nutlin-3] + C=CCNC1=C2C[C@@H](C)C[C@H](OC)[C@H](O)[C@@H](C)/C=C(\C)[C@H](OC(N)=O)[C@@H](OC)/C=C\C=C(/C)C(=O)NC(=CC1=O)C2=O [Tanespimycin] (first compound 0.5 µM, partner dose 0.01 µM)	59.9%	91.7%	56.9%	61.1%	69.5%	73.9%	104%	65.5%	17.9%	180%
